About 300 (9.4%) of roughly 3,200 compounds showed activity. The list shows a part of the results, in another mix than the full data.
Test system: A673/TR/shEF
Assay: cell viability (LOESS-normalised, relative to median of negative controls) (log2 ratio); higher = more viable cells (less compound effect), active = hit call of the paper (over 3 MAD below the median)
Conditions: treatment time: 72 h
Summary of the method: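 Viability of A673/TR/shEF Ewing sarcoma cells was determined by CellTiter-Glo luminescence. The cells, at 1,500 per well in 384-well plates, were grown with or without doxycycline from 24 h before compound addition to switch on EWS-FLI1 shRNA knockdown, then exposed for three days to library compounds at two or more concentrations or to DMSO controls. Signals were LOESS-corrected plate by plate, normalised to the negative-control median and log2-transformed.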

[1] = 0.25 µM, library screen: screen1, EWS-FLI1 expression: high (no doxycycline)
[2] = 0.25 µM, library screen: screen1, EWS-FLI1 expression: low (doxycycline-induced shRNA knockdown)
[3] = 2.5 µM, library screen: screen1, EWS-FLI1 expression: high (no doxycycline)
[4] = 2.5 µM, library screen: screen1, EWS-FLI1 expression: low (doxycycline-induced shRNA knockdown)
[5] = 0.103 µM, library screen: screen3, EWS-FLI1 expression: high (no doxycycline)
[6] = 0.103 µM, library screen: screen3, EWS-FLI1 expression: low (doxycycline-induced shRNA knockdown)
[7] = 0.308 µM, library screen: screen3, EWS-FLI1 expression: high (no doxycycline)
[8] = 0.308 µM, library screen: screen3, EWS-FLI1 expression: low (doxycycline-induced shRNA knockdown)
[9] = 0.926 µM, library screen: screen3, EWS-FLI1 expression: high (no doxycycline)
[10] = 0.926 µM, library screen: screen3, EWS-FLI1 expression: low (doxycycline-induced shRNA knockdown)
[11] = 2.8 µM, library screen: screen3, EWS-FLI1 expression: high (no doxycycline)
[12] = 2.8 µM, library screen: screen3, EWS-FLI1 expression: low (doxycycline-induced shRNA knockdown)
[13] = 8.3 µM, library screen: screen3, EWS-FLI1 expression: high (no doxycycline)
[14] = 8.3 µM, library screen: screen3, EWS-FLI1 expression: low (doxycycline-induced shRNA knockdown)
[15] = 25 µM, library screen: screen3, EWS-FLI1 expression: high (no doxycycline)
[16] = 25 µM, library screen: screen3, EWS-FLI1 expression: low (doxycycline-induced shRNA knockdown)
[17] = 0.25 µM, library screen: screen2, EWS-FLI1 expression: high (no doxycycline)
[18] = 0.25 µM, library screen: screen2, EWS-FLI1 expression: low (doxycycline-induced shRNA knockdown)
[19] = 2.5 µM, library screen: screen2, EWS-FLI1 expression: high (no doxycycline)
[20] = 2.5 µM, library screen: screen2, EWS-FLI1 expression: low (doxycycline-induced shRNA knockdown)

CCC(C(=O)O)c1ccccc1 (stereo not given)
cell viability (log2) [1]: inactive: 0.0972
cell viability (log2) [2]: inactive: 0.00275
cell viability (log2) [3]: inactive: 0.117
cell viability (log2) [4]: inactive: -0.0183

COc1cc2c(Oc3ccc4[nH]c(C)cc4c3F)ncnc2cc1OCCCN1CCCC1
cell viability (log2) [5]: inactive: 0.0825
cell viability (log2) [6]: inactive: 0.0561
cell viability (log2) [7]: inactive: 0.034
cell viability (log2) [8]: inactive: 0.013
cell viability (log2) [9]: inactive: 0.0586
cell viability (log2) [10]: inactive: 0.0142
cell viability (log2) [11]: inactive: 0.0459
cell viability (log2) [12]: inactive: 0.0297
cell viability (log2) [13]: inactive: -0.077
cell viability (log2) [14]: inactive: 0.092
cell viability (log2) [15]: inactive: 0.0238
cell viability (log2) [16]: inactive: 0.0041

CC(=O)O[C@]1(C(C)=O)CC[C@H]2[C@@H]3C[C@H](C)C4=CC(=O)CC[C@]4(C)[C@H]3CC[C@@]21C
cell viability (log2) [1]: inactive: 0.059
cell viability (log2) [2]: inactive: -0.0147
cell viability (log2) [3]: inactive: 0.0251
cell viability (log2) [4]: inactive: 0.152

CC(C)NCC(O)c1ccc2ccccc2c1 (stereo not given)
cell viability (log2) [1]: inactive: 0.144
cell viability (log2) [2]: inactive: 0.0682
cell viability (log2) [3]: inactive: 0.153
cell viability (log2) [4]: inactive: -0.0007

CN(C)c1nc(N(C)C)nc(N(C)C)n1
cell viability (log2) (0.025 µM, library screen: screen2, EWS-FLI1 expression: high (no doxycycline)): inactive: 0.116
cell viability (log2) (0.025 µM, library screen: screen2, EWS-FLI1 expression: low (doxycycline-induced shRNA knockdown)): inactive: -0.0745
cell viability (log2) [5]: inactive: 0.0751
cell viability (log2) [6]: inactive: -0.0422
cell viability (log2) [1]: inactive: 0.139
cell viability (log2) [2]: inactive: 0.148
cell viability (log2) [17]: inactive: 0.0462
cell viability (log2) [18]: inactive: 0.0478
cell viability (log2) [7]: inactive: -0.025
cell viability (log2) [8]: inactive: 0.0382
cell viability (log2) [9]: inactive: -0.0382
cell viability (log2) [10]: inactive: 0.1
cell viability (log2) [3]: inactive: 0.104
cell viability (log2) [4]: inactive: 0.206
cell viability (log2) [19]: inactive: 0.0387
cell viability (log2) [20]: inactive: 0.105
cell viability (log2) [11]: inactive: 0.0274
cell viability (log2) [12]: inactive: 0.0363
cell viability (log2) [13]: inactive: 0.042
cell viability (log2) [14]: inactive: 0.0579
cell viability (log2) (25 µM, library screen: screen2, EWS-FLI1 expression: high (no doxycycline)): inactive: 0.0787
cell viability (log2) (25 µM, library screen: screen2, EWS-FLI1 expression: low (doxycycline-induced shRNA knockdown)): inactive: 0.0521
cell viability (log2) [15]: inactive: 0.0237
cell viability (log2) [16]: inactive: 0.0542

Nc1ncnc2c1nc(Sc1ccc(Cl)cc1)n2[C@@H]1O[C@@H]2COP(=O)(O)O[C@H]2[C@H]1O
cell viability (log2) [17]: inactive: 0.202
cell viability (log2) [18]: inactive: 0.0851
cell viability (log2) [19]: inactive: 0.104
cell viability (log2) [20]: inactive: 0.103

CCCNCC(O)COc1ccccc1C(=O)CCc1ccccc1 (stereo not given)
cell viability (log2) [1]: inactive: 0.0619
cell viability (log2) [2]: inactive: 0.0658
cell viability (log2) [17]: inactive: 0.182
cell viability (log2) [18]: inactive: 0.117
cell viability (log2) [3]: inactive: 0.0809
cell viability (log2) [4]: inactive: -0.069
cell viability (log2) [19]: inactive: 0.106
cell viability (log2) [20]: inactive: 0.0368

O=[N+]([O-])c1cccc2cn[nH]c12
cell viability (log2) [17]: inactive: 0.196
cell viability (log2) [18]: inactive: 0.0996
cell viability (log2) [19]: inactive: 0.0483
cell viability (log2) [20]: inactive: 0.0667

COc1ccccc1OCC(O)CN1CCN(CC(=O)Nc2c(C)cccc2C)CC1 (stereo not given)
cell viability (log2) [5]: inactive: 0.0717
cell viability (log2) [6]: inactive: -0.00569
cell viability (log2) [17]: inactive: 0.183
cell viability (log2) [18]: inactive: 0.0629
cell viability (log2) [7]: inactive: 0.0503
cell viability (log2) [8]: inactive: 0.079
cell viability (log2) [9]: inactive: 0.0573
cell viability (log2) [10]: inactive: 0.121
cell viability (log2) [19]: inactive: 0.125
cell viability (log2) [20]: inactive: 0.0983
cell viability (log2) [11]: inactive: 0.109
cell viability (log2) [12]: inactive: 0.117
cell viability (log2) [13]: inactive: 0.0881
cell viability (log2) [14]: inactive: 0.0919
cell viability (log2) [15]: inactive: 0.0739
cell viability (log2) [16]: inactive: 0.0985

CC(C)[C@@H]1NC(=O)[C@H](CCCCN)NC(=O)[C@@H](Cc2c[nH]c3ccccc23)NC(=O)[C@H](Cc2ccc(O)cc2)NC(=O)[C@H](C)N(C)C(=O)[C@H](Cc2ccccc2)NC1=O
cell viability (log2) [17]: inactive: 0.191
cell viability (log2) [18]: inactive: 0.085
cell viability (log2) [19]: inactive: 0.149
cell viability (log2) [20]: inactive: 0.111

COc1cc([C@@H]2c3cc4c(cc3[C@@H](O[C@@H]3O[C@@H]5CO[C@@H](C)O[C@H]5[C@H](O)[C@H]3O)[C@H]3COC(=O)[C@H]23)OCO4)cc(OC)c1O
cell viability (log2) [5]: inactive: 0.16
cell viability (log2) [6]: inactive: 0.0754
cell viability (log2) [1]: inactive: 0.0215
cell viability (log2) [2]: inactive: 0.0298
cell viability (log2) [17]: inactive: 0.197
cell viability (log2) [18]: inactive: 0.0698
cell viability (log2) [7]: inactive: 0.0781
cell viability (log2) [8]: inactive: 0.0446
cell viability (log2) [9]: inactive: 0.0107
cell viability (log2) [10]: inactive: 0.0985
cell viability (log2) [3]: active: -0.176
cell viability (log2) [4]: inactive: 0.00733
cell viability (log2) [19]: active: -0.711
cell viability (log2) [20]: inactive: 0.00714
cell viability (log2) [11]: active: -0.212
cell viability (log2) [12]: inactive: -0.0251
cell viability (log2) [13]: active: -0.857
cell viability (log2) [14]: active: -0.166
cell viability (log2) [15]: active: -1.25
cell viability (log2) [16]: active: -0.367

C[C@H]1C[C@@H]2[C@H]([C@@H](O)C[C@@]3(C)[C@H]2CC[C@]3(O)C(=O)CO)[C@@]2(C)C=CC(=O)C=C12
cell viability (log2) [5]: inactive: 0.0283
cell viability (log2) [6]: inactive: 0.061
cell viability (log2) [1]: inactive: 0.152
cell viability (log2) [2]: inactive: 0.0361
cell viability (log2) [7]: inactive: 0.0425
cell viability (log2) [8]: inactive: 0.0594
cell viability (log2) [9]: inactive: 0.0629
cell viability (log2) [10]: inactive: 0.0972
cell viability (log2) [3]: inactive: 0.129
cell viability (log2) [4]: inactive: -0.115
cell viability (log2) [11]: inactive: 0.0626
cell viability (log2) [12]: inactive: 0.106
cell viability (log2) [13]: inactive: 0.0704
cell viability (log2) [14]: inactive: 0.103
cell viability (log2) [15]: inactive: 0.0302
cell viability (log2) [16]: inactive: 0.0263
